In all, about 340,000 compounds went through this assay and about 12,000 (3.5%) were called active. The shares of active, inactive and inconclusive entries below differ from those in the screen. Calls follow the shape of the dose curve; as a rule, active = well fitted inhibition curve with a large enough effect; inconclusive = small, poorly fitted or top-dose-only effect, or another doubt; inactive = no such curve, though single readings can be large or run the other way. No potency is given beside an inconclusive call; the fits are too rough.
Experiment: qHTS Assay for Inhibitors of Hepatitis C Virus (HCV)
Settings: Huh7.5.1 HCVcc-Cre (HCVcc is cell-culture hepatitis C virus) infection, luciferase reporter, 44 h; activity change, negative = inhibition: at 41.8 µM (top of the series) unless noted
Method in brief: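 Luciferase read-out (15 sec integration) after a 15 min room-temperature substrate step quantifies HCVcc-Cre infection. Cells, 1,000 per well, had compound added 4 h post-plating, then virus at ~0.5 moi, and were cultured 44 h.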
% is scaled to controls: 0 for no effect and ±100 for the full control effect; potency is read from the fitted curve at half-maximal effect; tags tell the direction and shape of the fitted curve.

Compound	Potency	activity change, negative = inhibition
COc1ccccc1N1CCN(C(=O)CCCN2C(=O)c3cccc4cccc(c34)C2=O)CC1	active: 8.91 µM	
COc1cc(C(=O)Nc2nc(-c3ccc(Cl)cc3)c(C)s2)ccc1OCC(=O)Nc1ccc(F)cc1	inconclusive [inhibitor, full curve]	
COCC(C)NC(=O)CCS(=O)(=O)c1nc(-c2ccc(OC)cc2)cc(C(F)(F)F)n1 (configuration not stated)	inconclusive [inhibitor, single point]	
CC(OC(=O)CNC(=O)c1ccc2ccccc2c1)C(=O)N(C)C1CCCCC1 (configuration not stated)	inactive	
CCCS(=O)(=O)N1CCC(C(=O)NCCCN2CCC(Cc3ccccc3)CC2)CC1	inconclusive [inhibitor, partial curve]	
Cc1cc(C)c2c(N)c(C(=O)Nc3nccs3)sc2n1	inactive	
CCOc1ccc(NC(=O)CCSc2nc3c(c(CC)c2C#N)C(=O)CC(C)(C)C3)cc1	inconclusive [inhibitor, full curve]	
CCOC(=O)c1cccc(NC(=O)C2CCCN(S(=O)(=O)c3c(C)n[nH]c3C)C2)c1 (configuration not stated)	inactive	
CCOC(=O)C1=C(C)N(c2ccccc2)C(=O)/C1=C\c1cccs1	inconclusive [inhibitor, single point]	
CC(C)Cn1c(N)c(C(=O)COC(=O)c2cc(C(F)(F)F)nc3ccccc23)c(=O)n(C)c1=O	inconclusive [inhibitor, partial curve]	
Cc1ccccc1NC(=O)Cc1nc(COC(=O)Cc2c(F)cccc2Cl)cs1	inconclusive [inhibitor, single point]	
COC(=O)c1cc(NC(=O)c2cc(-c3ccc(OC)cc3)oc2C(F)(F)F)ccc1N1CCOCC1	active: 7.08 µM	
CCN(C(=O)Cn1c(=O)n(-c2cc(OC)c(OC)c(OC)c2)c(=O)c2ccccc21)c1cccc(C)c1	inactive	
O=C(OCCN1C(=O)c2ccccc2C1=O)Oc1ccccc1	inconclusive [inhibitor, single point]	
CCOC(=O)c1csc(CCNC(=O)c2oc3c(Cl)cc(C)cc3c2C)n1	inconclusive [inhibitor, single point]	
Cc1nn(C)cc1CN(C)C(=O)c1cc(-c2ccccc2)nc2ccc(Br)cc12	inconclusive [inhibitor, single point]	
CCOC(=O)C(C)(C)N(Cc1ccccc1C)S(=O)(=O)c1ccc(Cl)c([N+](=O)[O-])c1	inconclusive [inhibitor, single point]	
O=C(CN1CCOCC1)N/N=C/c1c(O)ccc2ccccc12	inconclusive [inhibitor, single point]	
O=C(Cc1ccc(F)cc1)Nc1ccc(S(=O)(=O)N2CCCC2)cc1	inconclusive [inhibitor, single point]	
CCC(=O)NC(=S)Nc1cccc(NC(=O)CC)c1	inactive	
CC(CCc1ccc(O)cc1)NC1c2ccccc2-c2ccccc21 (configuration not stated)	inactive	
CCCCOC(=O)c1ccc(N)cc1	inactive	
O=C(Oc1ccccc1C(=O)N1CCOCC1)c1ccc(Br)cc1	inactive	
CCOc1ccc(NC(=O)CN(C)C(=O)CCCc2c[nH]c3ccccc23)cc1OCC	inconclusive [inhibitor, single point]	

Compound	Potency	activity change, negative = inhibition
O=C(NCc1c(Cl)cccc1Oc1ccccc1)c1ccccc1		inconclusive: -39.8% [inhibitor]
CC(Oc1ccc2c3c(c(=O)oc2c1)CCCC3)C(=O)NCCN1CCOCC1 (configuration not stated)	inactive	
CCN(CC)C(C(=O)Nc1ccc(C(C)C)cc1)c1ccc2c(c1)OCO2 (configuration not stated)	inconclusive [inhibitor, partial curve]	
CC1(c2ccc(Cl)cc2)NC(=O)CS1 (configuration not stated)	inactive	
O=C(COc1ccc(F)cc1)Nc1nc(-c2ccccn2)cs1	inconclusive [inhibitor, partial curve, poor fit]	
COc1ccc2sc(-c3ccc(SC)cc3)c(-c3ccc(O)cc3)c2c1	active: 12.6 µM	
COc1cccc(C(=O)C2CCCN(Cc3cn(C)nc3-c3ccccc3)C2)c1 (configuration not stated)	inactive	
COC(=O)c1cc(S(=O)(=O)N2c3ccccc3CC2C)c[nH]1 (configuration not stated)	inconclusive [inhibitor, single point]	
CCOC(=O)/C(C#N)=C/c1cc(C)n(-c2ccc(C)cc2)c1C	active: 8.91 µM	
CCOc1ccc(S(=O)(=O)N2CCCCC2)cc1NC(=O)Cc1cccc(C(F)(F)F)c1	inconclusive [inhibitor, partial curve]	
O=C(O)CSC1=NC(=Nc2ccc(Cl)cc2)C2(CCCCC2)N1c1cccc(C(=O)O)c1	inactive	
Cn1c(C(=O)Nc2ccccc2)cc2sccc21	inactive	
Cc1cc(NC(=O)c2ccc(Br)cc2)nc(C)n1	inactive	
COc1ccc(C(=O)c2cnc3ccccc3c2-c2ccccc2)cc1	active: 12.6 µM	
Cc1ccc(N(C(=O)CNC(=O)c2ccco2)C(C(=O)NCC2CCCO2)c2ccccc2)cc1C (configuration not stated)	inactive	
CCCCCCCn1c(=N)n(CC(O)c2ccco2)c2ccccc21 (configuration not stated)	active: 8.91 µM	
CC(/C=C/c1ccccc1)=N\NC(=O)Cn1cncn1	inactive	
COc1ccc([N+](=O)[O-])cc1/C=N/NC(=O)CNC(=O)C(c1ccccc1)c1ccccc1	inconclusive [inhibitor, partial curve]	
COc1[nH]c2ccc(F)cc2c1C(=O)OCC1CCN(CCNS(C)(=O)=O)CC1	inconclusive [inhibitor, partial curve]	
CCOC(=O)C1CCN(Cc2ccc(O)c3ncccc23)CC1	active: 10 µM	
Cc1cccc(NC(=O)c2nc[nH]c2C(=O)NCCCCCNC(=O)OC(C)(C)C)c1	inconclusive [inhibitor, single point]	
CCC(C(=O)N1CCN(c2cccc(Cl)c2)CC1)c1ccccc1 (configuration not stated)	inconclusive [inhibitor, single point]	
COC(=O)c1ccc(C(=O)OC)c(NC(=O)COc2ccccc2OC)c1	inconclusive [inhibitor, partial curve]	

Reference: PubChem BioAssay AID651820 (National Center for Advancing Translational Sciences (NCATS), 2012)
